{"source": "the RNAGym collection of RNA variant scans (doi:10.7554/elife.90254)", "parents": {"B1": {"name": "LINE1-mini (parent)", "chain": "GGCAGAGCUCAACACAGCGUGGCAAAGUGGCUGUGGCUAGACUGCC"}}, "note": "Read counts are not given, so values of variants with three or more changes are uncertain.", "data": [{"variants_of": "B1", "assay": "self-cleavage, relative activity (ratio to wild type); higher = more cleavage; in vitro, sequencing; the parent is a self-cleaving ribozyme", "values": [{"variant": "GGCAGAGCUCAACACAGGGCGGCAAAGUGGCUCUGGCUAGACUGCC", "self-cleavage": 0.01}, {"variant": "GGCAGGGCUCAAUACAGCGUGGCAAAGUGGCUGAGGCUAAACUGCA", "self-cleavage": 0.06}, {"variant": "GGCAGAUAUCAACACAGCGUGGCCAAGUGACUGUGGCUAGACUGCC", "self-cleavage": 0.09}, {"variant": "GUCAGAGCUCAUCACGGCGUGGCAAAGUGGCUGUGACUAGACUGCC", "self-cleavage": 0.02}, {"variant": "GGCAGAGCUCAACACAGCGUGGUAAAGGGGCUGUGGCUAGGCUGCC", "self-cleavage": 0.56}, {"variant": "GGCAGACCUCAAGACAGCGUGGCAAAAUGGCUGUGGCUAGACUGCC", "self-cleavage": 0.08}, {"variant": "GGCAGAUCUCAACACAGCGUGGCAAACUGGCUGUCGCUAGACUGCC", "self-cleavage": 0.34}, {"variant": "GCCACAUCUCAACAAAGCGUGGCAAAGUGGCUGUGGCUAGACUGCC", "self-cleavage": 0.05}, {"variant": "GGCAGAGCUCAACGCAGCGUGGCAAAGUGGCUCUGGCUAGAAUGCC", "self-cleavage": 0.03}, {"variant": "GGCAGAGCUCAACCCAGCGUGGCAAUGUGGCUGUGGCUAGACUACC", "self-cleavage": 0.17}, {"variant": "GGCAGAGCUCAGGACAGCGUGGCAAAGUGGCUGUGGCUUGACUGCC", "self-cleavage": 0}, {"variant": "UGCAGAGUUCACCACAGCGUUUCACAGUGGCUGCGGCUAUACUGCC", "self-cleavage": 0}, {"variant": "GGCAGAGCUUAACACAGCGUAGGAAAGUGGCUGUGGCUAGACUGCC", "self-cleavage": 0.2}, {"variant": "GACAGAGCUCAACACAGCGUGGUAAAGUGGUUGUGGCUGGACUGCC", "self-cleavage": 0.13}, {"variant": "UGCAAAGCUCAACACGGCGUGGCAAAGUGGCUGUAGCUAGAAUGCC", "self-cleavage": 0.04}, {"variant": "GGCACAGCUCAACACGGCGUUGCAGAGUGGCUGUGGCUAGACUGCC", "self-cleavage": 0.03}, {"variant": "GGCACAACUGAAUACAGCGUGGCAAAGUGACUGUGGCUAGACUGCC", "self-cleavage": 0.03}, {"variant": "GGCAGGGCUCAAUACAGCGUGGAAAAGAGGCUGUGGCUAGACUACA", "self-cleavage": 0.23}, {"variant": "UGCACAGCUCAACACAGCGUGACAAAAUGUCGUUGGCUAGACUGCC", "self-cleavage": 0.04}, {"variant": "GGAAGAGGUCAGAACAGCGUGCCAAAGUGGCUGUGGCUAGACUGCC", "self-cleavage": 0.83}, {"variant": "GGCAGAUCUCAUCACAGCGUCUCAAAGUGGCUGUGGCUAGACUGGC", "self-cleavage": 0.06}, {"variant": "GGCAGAGCUGAACACAUCGUGGCAAAGUGUAUGUGGCUAGACUGCU", "self-cleavage": 0.12}, {"variant": "GCCAGUGCUCAACACAGCGUGGCAAAGUGGCUGUGGCUAAACUGUC", "self-cleavage": 0.02}, {"variant": "GGCAGAGCGCACCACAGCGUGGUAAAGUGGCUGUGCCUAGACUGCC", "self-cleavage": 0.01}, {"variant": "GGCAGGGCUCAACACAGCGUGGCAAAGUGGAUCUGGCUAGACUGUC", "self-cleavage": 0.09}, {"variant": "GGCAGAGCUCAACACAGCACGGCAAAGUGGCUGUGUCUAGACUGCC", "self-cleavage": 0.04}, {"variant": "GGCAGAGCUCAACACAGCAGGGCAACGUGUCUGUGGCUAGACUGCC", "self-cleavage": 0.25}, {"variant": "GGCAGAGCUCAACUCAACGUGGCAAAGUGGCUGAGGCUAGACUGCA", "self-cleavage": 0.1}, {"variant": "GGGAGAGCUCAACACAGCGUGGCAUAGUGGCUGUGGCGAGACUGCC", "self-cleavage": 0.17}, {"variant": "GGCAGAGAUCAAGACAGCGUGGCCAAGUGGCUGUGGCUAGACUGCC", "self-cleavage": 0.28}, {"variant": "GGCAGAGCUCCAAACAGCGUGGCAAAGUGGCGGUGGCUAGACUGCC", "self-cleavage": 0.01}, {"variant": "GGCAGAGAUCAACACCGCGUGGCAAAGUGGCUGUGGCUAGACUGUC", "self-cleavage": 0.6}, {"variant": "GGCAGAGAUCAACACAGCGUGGCAAAGUGGUUGUAGCUAGACUGAC", "self-cleavage": 0.13}, {"variant": "AACAGAGCUAAACACAACGUGGCAAAGUGGCUGGGGCUAGACUGCC", "self-cleavage": 0.06}, {"variant": "GGCAGAGCUCAACACAGAGUGGCUAACUGGCUGUUGCUAGACUGCC", "self-cleavage": 0.02}, {"variant": "GGAAGAGCUCAAAACAGCGUGGCAAAGUGGCUGUGGCUAGAAUGCC", "self-cleavage": 0.29}, {"variant": "GGCCGAGCUCAACACAGCGUGCCAAAGUGGCUGUGGCUAGACGGCC", "self-cleavage": 0.18}, {"variant": "GGCGGAGCUCAACACAGCGUGGCACAGUGGCUGUGGCUAGAUUGCC", "self-cleavage": 0.04}, {"variant": "GGCAGGGCUCAACACAGCGUCGCAAAGUGGCUGUGGCUGGACUGCC", "self-cleavage": 0.03}, {"variant": "GGCAGAGCUCUACACAGCGCGACAAUGUGGCUGUGGCUUGACUGCC", "self-cleavage": 0.02}, {"variant": "GGAAGAGCUCAACACAGCGAGGCAAGGUGACUGAGGCUAGACUGCC", "self-cleavage": 0.08}, {"variant": "GGCAGAGCUCAGUACAGCGUGUCAAAGUGGCUGUGGCUAGACUCCC", "self-cleavage": 0}, {"variant": "GGCAGGGCUCAACACAGCGUGGCAAAGGGGCUGUGACUAGACGGCC", "self-cleavage": 0}, {"variant": "GGCAAAGCUCAAAGCAGCAUGGCAAAGUGGCUGUGGCUAGACUGCC", "self-cleavage": 0.09}, {"variant": "GGCAGACCACAAUACAGCGUGGCAAAGUGGCUGUGGCUAGACUGCC", "self-cleavage": 0.04}, {"variant": "GUCAGAGCUCAAUAUAGCGUGGCAAAGUGGCUAUGGCUAGACUGCC", "self-cleavage": 0.14}, {"variant": "GGCAGAGCUCACCACAGCGUGGCAUAGGGACUGUAGUUAGUCUGCC", "self-cleavage": 0}, {"variant": "GGCAGAUCUUAACACAGCCUUGCAAAGUGGCUGUGGCUAAACUGCC", "self-cleavage": 0.01}, {"variant": "GGCAGAGCUUAAAACAGCGUGCCAAAGUGGCUGUGGCUAGUCUGCC", "self-cleavage": 0}, {"variant": "GGCAGAGCUCAACACAGCGUGGCAUAUUGGCUGUGGCUAGACUACC", "self-cleavage": 0.19}, {"variant": "GUCAGAGCUCAACACAGUGUGGUAAAGUGGCUGUGGCUAGACUGCC", "self-cleavage": 0.07}, {"variant": "GUCAGAGCUCAACACAGCGUGGCAGAAGGGCUGUGGCUAGACAGCA", "self-cleavage": 0.01}, {"variant": "GGCAGAGGUCAUCCCAGCGUGGCAAAGUGGAUGUGGCUAGACUGCC", "self-cleavage": 0.01}, {"variant": "GGCGGAACUCAACACAGCCUGGCAAAGUAACUGUGGCUUGACUGCC", "self-cleavage": 0.16}, {"variant": "GAUAGAGCUAAACCCAGCGUGGCAAAGUGGCUGUGGCUGGACUGCC", "self-cleavage": 0.04}, {"variant": "GGUAGAGCUCAAGGCAGGCUGGCAAAGUGGCUGUGGCUGAACUGUC", "self-cleavage": 0.05}]}]}
